# Source: article PMC6919601, “Identification of Plasmodium dipeptidyl aminopeptidase allosteric inhibitors by high throughput screening” (PLoS ONE, 2019)
# The whole screen tested about 110,000 compounds, of which about 230 (0.21%) showed an effect of 50% or more. Some of the results follow.
# Target: DPAP1 (Plasmodium falciparum, UniProt Q8IIJ9)
# Assay: primary screen, percent inhibition; read by cleavage of a fluorogenic dipeptide substrate; higher = more effect of the substance
# Set-up: species or system P. falciparum D10 trophozoite lysates; single well
# 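Note: 30 min substrate incubation versus DMSO and 10 µM JCP410 controls.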
# Chain of DPAP1 (Q8IIJ9 whole entry, looked up): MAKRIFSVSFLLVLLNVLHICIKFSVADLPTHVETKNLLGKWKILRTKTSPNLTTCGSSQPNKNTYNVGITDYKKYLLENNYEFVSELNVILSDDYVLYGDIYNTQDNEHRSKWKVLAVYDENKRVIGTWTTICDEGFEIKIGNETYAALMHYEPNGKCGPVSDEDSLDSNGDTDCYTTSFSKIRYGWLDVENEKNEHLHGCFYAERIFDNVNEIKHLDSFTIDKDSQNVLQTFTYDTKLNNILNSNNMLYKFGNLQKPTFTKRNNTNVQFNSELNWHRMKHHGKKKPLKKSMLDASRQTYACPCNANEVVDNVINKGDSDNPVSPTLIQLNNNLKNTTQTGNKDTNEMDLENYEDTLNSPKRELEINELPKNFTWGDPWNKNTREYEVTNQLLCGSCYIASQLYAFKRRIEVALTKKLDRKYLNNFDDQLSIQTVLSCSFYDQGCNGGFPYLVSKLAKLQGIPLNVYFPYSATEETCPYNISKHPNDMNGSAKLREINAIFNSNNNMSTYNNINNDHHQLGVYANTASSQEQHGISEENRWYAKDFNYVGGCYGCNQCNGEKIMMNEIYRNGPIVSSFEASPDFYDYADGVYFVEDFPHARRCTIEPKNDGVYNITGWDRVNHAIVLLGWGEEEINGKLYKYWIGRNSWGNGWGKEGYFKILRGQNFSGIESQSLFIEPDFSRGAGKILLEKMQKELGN
row,Compound,% Inhibition @ 10 uM [%]
1,CCc1c(O)n(C(C)CC)c(SC)nc1=O (centres unmarked),5.56
2,Cc1ccc(CCNC(=O)C2CCN(S(=O)(=O)N3CCC4(CC3)OCCO4)CC2)cc1,-2.99
3,CCc1c(C)sc(NC(=O)c2ccc(C)o2)c1C(N)=O,0.163
4,CCN1CCN(Cc2c(F)cccc2Cl)CC1,3.68
5,CC(C)NC(=O)Nc1cccc(Cl)c1,-7.57
6,COCCCNC(=O)Cn1nc(C)n2c(cc3occc32)c1=O,-2
7,O=C(c1csc2c1CCCC2)N1CCOCC1,0.392
8,COc1ccc2[nH]c3c(=O)n(CCCCCC(=O)NC(C)C)c(=S)[nH]c3c2c1,-2.16
9,C=CCc1cc(C2C3=C(O)CCCC3=NC3=C2C(=O)CCC3)cc(OC)c1O (centres unmarked),-1.06
10,CC1CCCN(S(=O)(=O)c2cc(Cl)ccc2Cl)C1 (centres unmarked),3.47
11,CCn1ncc(C2=NOC(C(=O)NCCc3ccccc3)C2)c1C (centres unmarked),-4.85
12,COc1cccc(-c2cc(C(=O)N3CCN(C(=O)c4cc(OC)c(OC)c(OC)c4)CC3)[nH]n2)c1,5.15
13,CCC(C)NC(=O)Cn1c(-c2ccccc2)cc(C(C)=O)c1C (centres unmarked),7.56
14,COc1ccc(N(CC(=O)Nc2ccccc2C)S(=O)(=O)c2ccccc2)cc1Cl,-1.95
15,CCN(CC)S(=O)(=O)c1nnc(NC(=O)C2CCCCC2)s1,-5.37
16,CC1CN(Cc2nc3c(c(=O)n(C)c(=O)n3C)n2CCCc2ccccc2)CC(C)O1 (centres unmarked),3.63
17,Cn1c2ccccc2c2cnn(CC(=O)O)c(=O)c21,3.24
18,Cn1c(=O)c2c(nc(N3CCN(c4ccccn4)CC3)n2Cc2ccccc2Cl)n(C)c1=O,-3.53
19,Cc1cc(C=C2C(=O)N(C)C(=O)N(C)C2=O)c(C)n1-c1ccc(OCc2ccccc2F)cc1,5
20,CC(C)(C)c1ccc(CN(C(=O)c2cc(=O)c3cc(Cl)ccc3o2)C2CCS(=O)(=O)C2)cc1 (centres unmarked),6.56
21,Cc1ccc(OCC(=O)Nc2cccc(O)c2)c(C)c1,-1.42
22,CCOC(=O)N1CCC(NC(=O)C2CCN(S(=O)(=O)c3cccc4cccnc34)CC2)CC1,0.208
23,COc1ccc(-c2cn3c(n2)sc2cc(C(=O)NCc4ccc(F)cc4)ccc23)cc1,-2.67
24,O=C(NCc1ccccc1Cl)C1CCC(CNS(=O)(=O)c2ccccc2)CC1 (centres unmarked),-4.53
25,Cc1ccc(S(=O)(=O)/N=C2\C=C(NCc3ccccc3)C(=O)c3ccccc32)c(C)c1,-3.33

row,Compound,% Inhibition @ 10 uM [%]
1,CCOc1ccc2[nH]c(C(=O)O)c(CCNC(C)=O)c2c1,6.43
2,COc1ccccc1CNc1nc2c(-c3ccccc3)nnn2c2ccccc12,-6.52
3,N#C/C(=C\c1c(Oc2ccccc2)nc2ccccn2c1=O)C(=O)NCc1ccco1,1.06
4,COc1ccc(-c2noc(-c3cccc4ccccc34)n2)cc1,0.343
5,O=c1/c(=C/c2cccc3ccccc23)sc2nc(-c3ccc(F)cc3)nn12,3.87
6,Cc1ccc(S(=O)(=O)N2CCCC(C(=O)N3CCc4ccccc4C3)C2)cc1 (centres unmarked),3.87
7,CCCOc1cccc(C2C3=C(O)CC(C)(C)CC3=Nc3ccccc3N2C(C)=O)c1 (centres unmarked),-6.62
8,COc1ccc(-c2nc(CS(=O)CC(=O)NC3CCCCCC3)c(C)o2)cc1 (centres unmarked),-2.85
9,COc1ccc(/C=C/c2nn3c(-c4ccncc4)nnc3s2)cc1,27.1
10,CC(c1ccccc1)N1C(=O)c2ccc(Br)cc2C1=O (centres unmarked),2.7
11,N=C1/C(=C\c2ccc(-c3ccccc3Cl)o2)C(=O)N=C2SC(N3CCOCC3)=NN12,3.32
12,O=C(C1c2ccccc2C(=O)N2CCc3ccccc3C12)N1CCC2(CC1)OCCO2 (centres unmarked),-7.85
13,Cn1c(=O)c2c(-c3ccccc3)n(-c3ccc(C(=O)O)cc3)cc2n(C)c1=O,9.68
14,Cc1ccc(OCC(=O)Nc2ccc(C(C)C)cc2)cc1,-3.03
15,CCN1CCC(N(CC)CCN(C)C)CC1,-0.307
16,CN1C(=O)C(=Cc2ccc(-c3ccc(Br)c4ccccc34)o2)C(=O)N(C)C1=O,1.37
17,CCN1CCN(C(C(=O)NC2CCCC2)c2ccc(Cl)cc2)CC1 (centres unmarked),-2.04
18,O=C(NCCC1=CCCCC1)C1c2ccccc2Oc2ccccc21,-1.1
19,Oc1ccc(CN2CCC(N3CCCCC3)CC2)cc1,-1.75
20,O=C(c1ccccc1)c1cccnc1C(=O)O,1.19
21,O=C(O)C1C2CCC(C2)C1C(=O)Nc1ccc(Cl)cc1 (centres unmarked),-0.996
22,CCN(CC)CCOC(=O)C12CC3CC(CC(C3)C1)C2,1.62
23,CCOC(=O)c1c(NC(C)=O)sc2c1CCC/C2=N\OC(=O)c1ccc(Br)cc1,2.8
24,CCn1c2ccccc2c2cc(CN3CCC(O)(c4ccc(Cl)cc4)CC3)ccc21,4.68
25,O=C(O)c1ccc(CNC2CCCc3ccccc32)s1 (centres unmarked),-2.37

row,Compound,% Inhibition @ 10 uM [%]
1,COc1ccc(N(CC(=O)Nc2ccc(C)cc2C)S(C)(=O)=O)c(OC)c1,-7.09
2,CCCOc1ccc(C2c3c(oc4ccc(F)cc4c3=O)C(=O)N2CCCN2CCOCC2)cc1 (centres unmarked),0.628
3,CCOc1ccc(CCNC(=O)COCc2cc(-c3ccc(F)cc3)on2)cc1,-3.81
4,Cc1cc(-c2ccc(C)c(S(=O)(=O)N3CCN(C4CCCCC4)CC3)c2)on1,0.098
5,CC1CN(Cc2ccc(-c3ccccc3)cc2)CC(C)O1 (centres unmarked),-1.5
6,O=C1NC(=O)C23CCC12C1c2ccccc2C3c2ccccc21 (centres unmarked),0.956
7,O=C(NCCc1ccccc1)c1ccc2c(c1)ncn2-c1ccc(F)cc1F,-3.93
8,Cc1cc(F)c(F)c(C(=O)N2CCC(C)CC2)c1Cl,-3.04
9,Cc1ccccc1-n1c(C)cc(/C=C2\NC(=O)NC2=O)c1C,-3.92
10,O=C(Cn1ncc2ccc(Cl)cc21)NC1CCCCC1,-1.11
11,CCOc1ccccc1C1CC(=O)NC(SCC(=O)Nc2nccs2)=C1C#N (centres unmarked),-3.56
12,COC(=O)C1=CNC=C(C(=O)OC)C1c1cc(OC)c(OC)c(OC)c1,15.9
13,O=C(c1nn2c(C(F)(F)F)cc(-c3ccccc3)nc2c1Cl)N1CCN(c2ccc(F)cc2)CC1,-3.44
14,O=C(O)C1CC(c2ccccc2)=C(c2ccccc2)CC1C(=O)c1ccccc1 (centres unmarked),17.1
15,Cc1nn(Cc2ccccc2)c(C)c1C(=O)O,-0.744
16,COc1ccc(Cl)cc1N/C=C/C(=O)c1ccc(OC)c(OC)c1,1.08
17,COC(=O)c1c(C)oc2ccc(O)c(CN3CCCCC3)c12,3.74
18,c1cnn(-c2cc(NC3CCCCC3)ncn2)c1,3.48
19,Fc1ccccc1N1CCN(C2CCN(Cc3ccccc3)CC2)CC1,-6.62
20,Cc1ccc(S(=O)(=O)Nc2ccc(NC(=O)COc3ccc(Cl)cc3)cc2)cc1,-1.35
21,Cc1cccc(CN2C(=O)N/C(=C/c3cc(C)n(-c4ccncc4)c3C)C2=O)c1,-2.75
22,COC(=O)C1=C(C)N(C2CCCCC2)C(=O)/C1=C\c1ccc(O)cc1,0.408
23,COc1cccc(C2CC(=O)NC3=C2C(=O)CCC3)c1 (centres unmarked),-5.2
24,CCOc1c(Cl)cc(C(=O)Nc2ccccc2O)cc1Cl,-12.7
25,CC1CN(C(=O)/C(=C\c2ccccc2)NC(=O)c2ccccc2)CC(C)O1 (centres unmarked),0.685

row,Compound,% Inhibition @ 10 uM [%]
1,CC(NC(=O)C(=O)NCc1ccccn1)C(c1cccs1)N1CCOCC1 (centres unmarked),-1.08
2,O=c1nc(NCc2ccccc2)ccn1-c1nc(-c2ccccc2)oc1-c1ccccc1,-2.13
3,Cc1ccc(S(=O)(=O)Cc2nc(-c3ccc(C(=O)N4CCCCCC4)cc3)oc2C)cc1,-8.88
4,CCC1CCCCN1CCCNC(=O)c1ccc(CS(=O)(=O)c2ccccc2OC)o1 (centres unmarked),2.14
5,COc1ccc(-c2csc3nc(-c4ccc(C)cc4)oc(=O)c23)cc1,-2.26
6,Cc1ccccc1Cn1nnc(C(=O)O)c1C(=O)O,-0.326
7,COc1ccc(S(=O)(=O)N2CCN(C)CC2)cc1-c1nnc2c3ccccc3c(C)nn12,-2.91
8,CC(C)(C)c1[nH]nc2c1C(c1ccc(Cl)s1)C(C#N)=C(N)O2 (centres unmarked),3.19
9,CCOc1cc(Br)c(C(C)NC(=O)c2ccccc2)cc1OCC (centres unmarked),-1.28
10,Cc1nnc(SCC(=O)NCc2ccc(OC(C)C)cc2)c2nn(-c3ccccc3)c(C)c12,-6.68
11,Cc1ccc(N2CCN(C3CCN(CCc4ccccc4)CC3)CC2)cc1,1.9
12,Cc1c(-c2nsc(NC(=O)c3ccccc3)n2)nnn1-c1ccc(C(C)C)cc1,-0.48
13,CCCCC1(O)C(C)C(c2ccccc2)NC(c2ccccc2)C1C (centres unmarked),18.1
14,COc1ccccc1N1CCN(Cc2cccs2)CC1,-0.192
15,O=C(NC1CCCCCC1)c1csc2ccccc12,-3.09
16,C=CCN1C(=O)N/C(=C/c2cc(C)n(-c3ccccc3F)c2C)C1=O,4.5
17,C=C(C)Cn1c(COc2ccc(C)cc2)nc2ccccc21,-0.551
18,COc1ccc(/C=C/C2=CCN(Cc3ccccc3)CC2)cc1,5.69
19,Cc1cc(-n2ccnc2)n2c(nc3ccccc32)c1C#N,20.5
20,O=C1Nc2c(C(=O)O)cccc2C1=O,-6.24
21,CCC1CCCCN1C/C=C/c1ccc(N(C)C)cc1 (centres unmarked),2.7
22,CC(=O)c1cc(-c2ccc(F)cc2)n(CCC(=O)Nc2cccc(C)n2)c1C,-0.176
23,COc1ccc(OC2CCN(S(=O)(=O)c3ccc(C(C)(C)C)cc3)CC2)cc1,-2.84
